# In all, about 110,000 compounds were measured (“z-score”: median about -0.1, highest 2% from about 2 on). This is one part of the list. Calls of active or inactive are those of the source.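 The calls were made as follows: active = z-score in the third read window above 3 or below -3; inactive = the rest.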
# Target: Metabotropic glutamate receptor 8 (Rattus norvegicus) (UniProt P70579)
# Test: mGluR8 Gi/Go-coupled signaling modulation – cell-based, rat, thallium flux, HTS, primary screen (AID 488969)
# Conditions: HEK293 rat mGluR8, GIRK (G protein-gated inwardly rectifying potassium channel) thallium flux, FluoZin2; at 10 µM; stronger effect = higher value; submaximal glutamate (EC20) added with thallium
# Chain of UniProt P70579 (P70579 whole entry, looked up): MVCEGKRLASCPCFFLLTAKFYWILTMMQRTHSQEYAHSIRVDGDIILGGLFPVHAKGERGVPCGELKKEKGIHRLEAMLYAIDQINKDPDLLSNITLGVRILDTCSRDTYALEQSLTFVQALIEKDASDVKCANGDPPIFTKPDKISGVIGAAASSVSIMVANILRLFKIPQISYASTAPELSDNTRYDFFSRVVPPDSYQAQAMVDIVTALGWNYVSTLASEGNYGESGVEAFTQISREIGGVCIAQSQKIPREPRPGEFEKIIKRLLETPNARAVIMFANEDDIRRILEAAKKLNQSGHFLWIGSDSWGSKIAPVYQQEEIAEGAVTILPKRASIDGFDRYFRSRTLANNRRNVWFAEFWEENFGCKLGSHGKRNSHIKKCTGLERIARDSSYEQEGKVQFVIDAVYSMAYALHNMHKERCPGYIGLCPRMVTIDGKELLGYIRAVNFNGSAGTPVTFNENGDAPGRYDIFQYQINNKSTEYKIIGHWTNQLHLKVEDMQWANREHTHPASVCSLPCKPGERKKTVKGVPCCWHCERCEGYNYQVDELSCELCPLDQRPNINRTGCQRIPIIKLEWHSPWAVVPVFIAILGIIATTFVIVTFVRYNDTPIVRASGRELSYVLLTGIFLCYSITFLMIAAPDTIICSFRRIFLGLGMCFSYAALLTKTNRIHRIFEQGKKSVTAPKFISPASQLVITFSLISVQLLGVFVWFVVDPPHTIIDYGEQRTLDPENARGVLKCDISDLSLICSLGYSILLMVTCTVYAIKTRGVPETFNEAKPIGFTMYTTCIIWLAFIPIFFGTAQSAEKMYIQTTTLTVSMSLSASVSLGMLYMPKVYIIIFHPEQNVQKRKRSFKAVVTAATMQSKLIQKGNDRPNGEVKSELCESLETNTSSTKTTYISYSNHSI
row,SMILES,z-score
1,O=C(c1ccco1)N1CCN(S(=O)(=O)c2ccc(Br)s2)CC1,-0.168
2,Cc1sc(NC(=O)CSC2=NCCS2)nc1-c1ccccc1,0.623
3,O=C1Nc2ccc(S(=O)(=O)N3CCCC3)c3cccc1c23,0.152
4,COc1ccccc1C1CC(c2ccc(F)cc2)Nc2ncnn21 (stereo not given),-0.499
5,CCC(=O)Nc1ccc(C(=O)N/N=C/c2cc(Br)c(OC)cc2OC)cc1,-0.162
6,O=C(NCC1CCCCC1)C12CN(Cc3ccccc3)CC1C(c1cccc([N+](=O)[O-])c1)=NO2 (stereo not given),-0.253
7,COc1ccc(CN(CC(=O)NCc2ccco2)C(=O)CCC(=O)Nc2nccs2)cc1,0.164
8,Cc1ccc(OCC(=O)N2CCN(S(=O)(=O)c3ccc(Cl)cc3)CC2)c([N+](=O)[O-])n1,-0.537
9,O=C(NCc1cccnc1)c1c(F)c(F)c(F)c(F)c1F,-0.459
10,Cc1ccccc1/[N+]([O-])=C/c1ccncc1,0.142
11,CSC1CCCCC1(O)CSc1nc2c(cc1C#N)CCCC2 (stereo not given),-0.0226
12,Cc1ccc(Cl)cc1N1CCN(S(=O)(=O)c2c(C)[nH]c(=O)[nH]c2=O)CC1,0.0549
13,COC(=O)c1cccc(NC(=O)CCc2cc(OC)c(OC)c(OC)c2)c1,0.0427
14,CCN(CC)c1ccc(C(=O)Nc2cccc(F)c2)cc1,-0.609
15,COc1cccc(N=Nc2c(=O)[nH]n3c(C)cc(C)nc23)c1,-0.00267
16,CCOC(=O)C1=C(C)N(c2nonc2NC(C)=O)C(N)=C(C#N)C1c1ccccc1F (stereo not given),0.995
17,CC(=O)Nc1cc(NC(C)=O)cc(C(=O)OCC(=O)N2CC(C)OC(C)C2)c1 (stereo not given),-0.109
18,CCOC(=O)c1c(NC(=S)NC)sc2c1CC(C)(C)SC2,active: 12.5
19,CCOc1ccc(-c2nnn(CC(=O)c3ccc4c(c3)OCCO4)n2)cc1OCC,-0.694
20,CC(/C=N\NC(=O)CN1CCN(S(=O)(=O)c2ccc(C)cc2)CC1)=C\c1ccccc1,-0.33
21,CCN1C(=O)C(NC(C)=O)c2cc(Br)ccc21 (stereo not given),1.19
22,COc1c(C)cc(Br)cc1C(=O)Nc1cccc(NC(=O)c2ccco2)c1,-1.53

row,SMILES,z-score
1,C=CCOC(=O)C1=C(C)Nc2ncnn2C1c1cccs1 (stereo not given),-2.14
2,O=C1COc2ccc(C(=O)/C=C/c3ccccc3)cc2N1,-0.156
3,COc1ccccc1Cc1nc(-c2ccc(C)cc2)no1,-0.218
4,Cc1ncoc1C(=O)Nc1cccc(Cl)c1C,0.581
5,CC(=O)Nc1cc(C(=O)N2CCN(C)CC2)ccc1S(=O)(=O)c1ccc(C)cc1,0.0185
6,COc1ccc2ccccc2c1/C=N\n1c(C)cc(C)c(C(N)=O)c1=O,0.345
7,COC(=O)CSc1cc(C)nc(SC)n1,0.243
8,CCc1ccccc1NC(=O)CN(C)C(=O)CSc1nc2cc(Cl)ccc2s1,-0.3
9,CC1CCCCN1Cc1ccc(N)cc1 (stereo not given),0.26
10,Cc1ccc(OC(=O)CCc2c(C)nc3ncnn3c2C)cc1,-0.382
11,CCN(CC)S(=O)(=O)c1ccc(Nc2ccc(-c3ccc4c(c3)OCCO4)nn2)cc1,0.132
12,O=C(CSc1nnc(-c2cc(-c3cccs3)nc3ccccc23)o1)NC1CCCCC1,-0.136
13,CCCN(C#N)c1nc(NCC)nc(NC(C)C)n1,0.86
14,CCCNC(=S)N1CCC(NC(=O)C2CCCCC2)CC1,0.042
15,Cc1cc(C)n2nc(C(=O)OCC(=O)Nc3ccc4c(c3)OC(F)(F)O4)nc2n1,-0.0308
16,COc1ccccc1/C=C(/C(=O)OCC(=O)N(C)Cc1ccccc1)c1ccccc1,-0.318
17,Cc1nc2ccccc2n1CC(O)Cn1c2ccccc2c2ccccc21 (stereo not given),0.752
18,CCCC(CCC)=NNC(=O)CN(Cc1ccccc1)S(=O)(=O)c1ccccc1,-0.537
19,O=c1[nH]ncc(NCCCO)c1Cl,-0.683
20,COc1ccc(C(=O)Nc2cc3c(cc2Cl)OCCCO3)cc1,-0.49
21,CCCCOP(=O)(c1ccc(N(C)C)cc1)C(O)c1ccccc1F (stereo not given),-0.233
22,CCCN(CCC)C(=O)CCSCCC(=O)N(CCC)CCC,-0.0331

row,SMILES,z-score
1,C/C(N)=C(/C#N)C(=O)COC(=O)CC12CC3CC(CC(C3)C1)C2,0.725
2,CCN(CC)S(=O)(=O)c1ccc(C)c(NC(=O)COc2ccc(Br)cc2Cl)c1,0.0626
3,CC(=O)c1c(C)[nH]c(C(=O)OC2CCCCC2=O)c1C (stereo not given),0.176
4,COc1ccc(C(=O)CSc2nnc(COc3ccc(C#N)cc3)n2-c2ccccc2)cc1,-0.43
5,CC(C)(C)OC(=O)N1CCN(c2ccc(CNC(=O)c3ccc(Cl)cc3)cc2)CC1,-0.0306
6,Cc1ccc(CSCCNC(=O)CSCc2ccc([N+](=O)[O-])cc2)cc1,-0.519
7,C=CCNc1nc(SC)nc2ccsc12,-0.152
8,CSc1nc(N2CCOCC2)c2ccccc2n1,-1.07
9,CCn1cc(C(=O)N2CCN(Cc3ccc4c(c3)OCO4)CC2)c2cc(OC)c(OC)cc2c1=O,-0.76
10,Cc1cc(=O)oc(C)c1C(=O)Nc1ccc2nsnc2c1,-0.238
11,CC1(C)CC(=O)C(C#N)=C(NCCCO)C1,-0.262
12,Cc1ccc(CN2CCN(CC(=O)N/N=C/c3c[nH]c4ccccc34)CC2)cc1,-0.216
13,CC(=O)c1sc(NC(=O)c2ccc(Cn3cc(Br)cn3)o2)nc1C,1.62
14,C=CCNC(=S)N1CCC(C(=O)c2ccc(OC)cc2)CC1,-0.145
15,C=C(C)C(=O)Nc1ccc(OC(F)(F)C(F)F)c(NC(=O)C(=C)C)c1,0.507
16,COc1ccc(CCn2c(C)cc(C(=O)CSc3nnnn3-c3ccccc3)c2C)cc1OC,-0.0773
17,O=C(CN1CCN(S(=O)(=O)c2ccc3ccccc3c2)CC1)Nc1ccc2c(c1)CCC2,-0.0294
18,CCOC(=O)c1sc2nc(N3CCOCC3)c3c(c2c1N)CCCC3,-0.026
19,CC1=C(C(=O)Nc2ccccc2C)C(c2cccnc2)n2nc(CCCO)nc2N1 (stereo not given),-0.0856
20,Cc1cc(C(=O)NN)c2cc(Br)ccc2n1,-0.118
21,NNc1nc2c(Cl)ccc(Cl)c2s1,-0.00578
22,O=C(CSc1nnc(-c2ccccc2Br)o1)Nc1cccc2ccccc12,-0.465

row,SMILES,z-score
1,Cc1nnc(NCCO)c2ccccc12,-0.3
2,CC1CCCN(C2=NC(=O)/C(=C/c3cn(-c4ccccc4)nc3-c3cccc(S(=O)(=O)N(C)C)c3)S2)C1 (stereo not given),0.104
3,CCCN(CCC)c1nc(NC2CCN(C(=O)OCC)CC2)nc(OC)n1,-0.1
4,COc1ccc(NC(=O)CSc2nnc(CNc3ccc(F)cc3)o2)c(OC)c1,-0.241
5,O=C(N/N=C/c1cccc([N+](=O)[O-])c1)c1cc(-c2ccc3c4c(cccc24)CC3)n[nH]1,-0.26
6,COCCNS(=O)(=O)c1cc(F)ccc1OC,-0.0485
7,O=C1C2C3C=CC(O3)C2C(=O)N1CC(O)c1ccccc1 (stereo not given),-0.327
8,CNC(=O)CC(C(=O)O)c1ccc(OC(C)C)cc1 (stereo not given),0.165
9,CC1CN(Cc2ccccc2Cl)CC(C)O1 (stereo not given),-0.405
10,NC(CC(=O)OC1CCCCC1)C(=O)OC1CCCCC1 (stereo not given),-0.287
11,COC(=O)c1ccc(Cl)c(NC(=O)CSc2ncn[nH]2)c1,-0.0241
12,CCc1cc(=O)n2c([nH]c3ccccc32)c1C#N,0.126
13,COc1ccc(/C=N/Nc2nccnc2Cl)cc1,0.871
14,O=C(NCCN1CCCC1)c1ccc2c(=O)n(CCc3ccccc3)c(=O)[nH]c2c1,1.17
15,O=C(O)CNC(=O)CCN1C(=O)c2ccccc2C1=O,-0.152
16,C/C(=N\NC(=O)c1ccc(CSc2nc(C)cc(C)n2)cc1)C1CCCCC1,-0.246
17,O=C(NC(=S)Nc1ccc(S(=O)(=O)Nc2nccs2)cc1)c1ccccc1,0.116
18,CCN(CC)CC(C)CNC(=O)CC(C(=O)N1CCc2ccccc21)n1ccnc1 (stereo not given),-0.405
19,Cc1cc2c(C)cc(=O)oc2c2c1NCCC2,-0.295
20,CC(=O)Nc1ccc(NC(=O)CN(C)CCC#N)cc1,0.0576
21,Cc1cc(Cl)c(OCCN2C(=O)NC(C)(C)C2=O)c(Br)c1,-0.0442
22,CCOc1cc(C)c(Cl)cc1S(=O)(=O)NCc1ccc2c(c1)OCO2,-0.837

row,SMILES,z-score
1,COc1ccccc1/C=C(/CC(=O)NCc1ccccc1)c1nc2ccccc2s1,-0.481
2,CCOc1ccccc1N1CCN(C(=S)Nc2ccc(S(N)(=O)=O)cc2)CC1,-0.356
3,CN(C)CCN(C(=O)/C=C/c1cccs1)c1nc2ccc(F)cc2s1,-0.305
4,Cc1onc(-c2ccccc2)c1C(=O)NNC(=S)NC(=O)c1ccc(Br)cc1,1.67
5,Cc1ccc(C)c(N2CCN(C(=O)Cc3cn(C)c4ccccc34)CC2)c1,-0.0579
6,CCCC1Cc2nc(N3CCCCC3)c(C#N)cc2CO1 (stereo not given),0.443
7,Cc1ccc(-n2c(N)c(C(=O)N3CCCCC3)sc2=S)cc1,-0.614
8,COc1cc(/C=N/OCC(=O)NC2CCCCC2C)ccc1OCc1ccc(Cl)cc1 (stereo not given),-0.387
9,Cc1cc(C(=O)Nc2c(C)n(C)n(-c3ccccc3)c2=O)c2ccccc2n1,0.444
10,FC(F)(F)Oc1ccc(NC(=S)NCc2ccccc2)cc1,active: 3.23
11,O=C(Cc1ccccc1)N1CCC(O)(c2cccnc2)CC1,-0.136
12,Cc1cc(C)c2nc(NC(=O)c3cccc(S(=O)(=O)N4CCc5ccccc54)c3)sc2c1,-0.315
13,COc1ccc(CN(C)CC(=O)Nc2ccc(N3CCOCC3)cc2)cc1OC,-0.224
14,CC1CC2(CCCCC2)N2C(=O)C(=O)c3cccc1c32 (stereo not given),-0.955
15,COc1ccc(CCNC(=O)C2CC(c3ccccc3[N+](=O)[O-])=NO2)cc1 (stereo not given),-0.176
16,CCNc1ccc2noc3c2c1C(=O)c1ccccc1-3,-1.71
17,Cc1noc(NS(=O)(=O)c2ccc(NC(=O)CSc3nc4c(cc3C#N)CCC4)cc2)c1C,0.813
18,CCOc1ccc(S(=O)(=O)Nc2ccc3c(c2)c2c(n3S(=O)(=O)c3ccc(OCC)cc3)CCCC2=O)cc1,-0.175
19,CCOC(=O)CSc1nc(N)c(C#N)c(-c2ccc(OC)cc2)c1C#N,0.504
20,O=C(Nc1ccc(Br)cc1)c1ccc(CSC2=NCCS2)cc1,0.0719
21,CCOC(=O)c1sc(NC(=O)C2C3C=CC(C3)C2C(=O)O)nc1C (stereo not given),-0.419
22,COc1ccc(CCn2c3c(c(=O)[nH]c2=O)C(NC(=O)c2cccs2)(C(F)(F)F)C(=O)N3)cc1OC (stereo not given),0.073
